Test results published in PubChem BioAssay AID488969 (Vanderbilt High Throughput Screening Facility, 2010).
In all, about 110,000 compounds were measured (“z-score”: median about -0.1, highest 2% from about 2 on). The list shows a part of the results. Calls of active or inactive are those of the source.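 How the source made its calls: active means z-score in the third read window above 3 or below -3; inactive means the rest.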

molecular target: Metabotropic glutamate receptor 8 (Rattus norvegicus) (UniProt P70579); assay: mGluR8 Gi/Go-coupled signaling modulation – cell-based, rat, thallium flux, HTS, primary screen (AID 488969); details: HEK293 rat mGluR8, GIRK (G protein-gated inwardly rectifying potassium channel) thallium flux, FluoZin2; at 10 µM; stronger effect = higher value; submaximal glutamate (EC20) added with thallium
Sequence of UniProt P70579 (P70579 whole entry, looked up): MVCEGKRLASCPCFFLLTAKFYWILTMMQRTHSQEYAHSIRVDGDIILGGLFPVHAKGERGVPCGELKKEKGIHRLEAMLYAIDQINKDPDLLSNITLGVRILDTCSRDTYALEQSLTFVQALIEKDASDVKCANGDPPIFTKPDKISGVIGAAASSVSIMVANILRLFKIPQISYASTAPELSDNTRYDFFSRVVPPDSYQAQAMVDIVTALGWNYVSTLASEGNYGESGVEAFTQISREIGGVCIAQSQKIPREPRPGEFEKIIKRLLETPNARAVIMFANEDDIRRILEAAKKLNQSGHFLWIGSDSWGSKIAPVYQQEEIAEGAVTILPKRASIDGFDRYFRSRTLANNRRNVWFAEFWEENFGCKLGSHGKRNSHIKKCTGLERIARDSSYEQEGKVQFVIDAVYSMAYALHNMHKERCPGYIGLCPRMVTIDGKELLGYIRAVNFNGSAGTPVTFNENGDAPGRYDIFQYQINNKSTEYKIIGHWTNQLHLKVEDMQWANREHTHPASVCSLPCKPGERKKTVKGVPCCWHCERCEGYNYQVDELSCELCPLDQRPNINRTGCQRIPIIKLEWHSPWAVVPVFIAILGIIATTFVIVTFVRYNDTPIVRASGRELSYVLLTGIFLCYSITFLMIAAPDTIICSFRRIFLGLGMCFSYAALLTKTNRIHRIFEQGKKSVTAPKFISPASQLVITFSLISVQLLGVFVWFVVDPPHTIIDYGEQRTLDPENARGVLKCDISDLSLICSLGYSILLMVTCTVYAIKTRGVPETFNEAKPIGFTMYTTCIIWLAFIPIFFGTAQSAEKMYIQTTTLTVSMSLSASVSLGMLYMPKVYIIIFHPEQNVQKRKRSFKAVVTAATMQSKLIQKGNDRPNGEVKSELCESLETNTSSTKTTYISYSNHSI

SMILES | z-score
O=C(CCCN1C(=O)c2ccccc2C1=O)N1CCc2ccccc2C1 | -0.236
CC(C)OC(=O)c1c2c(n3ccccc13)C(=O)c1ccccc1C2=O | -0.105
O=C(CN(C(=O)c1ccc2c(c1)OCCO2)c1ccccc1)NCC1CCCO1 (centres undefined) | -0.236
N#Cc1ccc(-c2ccc(F)cc2)nc1Oc1ccc(F)cc1 | 0.0358
COc1ccc(C2N=C(N)N=C(N)N2c2ccc(C)cc2)cc1 (centres undefined) | 0.272
O=C(NC1CCCC1)c1ccc(Br)o1 | -0.454
Cc1nc(CCNS(=O)(=O)c2cccs2)cs1 | 0.256
CC(C)c1ccc(NC(=S)NC2CCN(Cc3ccccc3)CC2)cc1 | 0.569
Cn1cc(Cl)c(C(=O)Nc2cccc(Cl)c2Cl)n1 | 0.0454
Cc1cc(O)c(C(C[N+](=O)[O-])c2ccc(Cl)cc2)c(=O)o1 (centres undefined) | 0.103
CCOC(=O)c1sc2nc(CC(=O)OC)nc(NCc3ccc(F)cc3)c2c1C | 0.0081
CCN(CC)CCNC(=O)c1cc2c(-c3ccc(Cl)cc3)nn(C)c2s1 | 0.278
CC(=O)Nc1nc2ccc(C(=O)NC3CCCCC3)cc2s1 | -0.32
CCOC(=O)c1sc(NC(=O)C2CC2)nc1C | -0.0762
CCCC(=O)Nc1ccc2c(c1)nc(CCNC(=O)c1ccccc1)n2C | -0.349
O=C(O)CCc1ccc(-c2ccc(Cl)cc2)n1Cc1ccco1 | -0.427
CCOc1ccc2nc(N3C(=O)/C(=C/c4ccc(Cl)cc4)NC3=S)sc2c1 | 1.05
CCOC(=O)c1[nH]c(C)c(C(=O)NC2CCCCC2)c1C | active: 3.27
Cc1ccc(C)c(N2CCN(C(=O)c3ccc(NS(=O)(=O)c4c(C)noc4C)cc3)CC2)c1 | -0.175
COC(=O)c1ccc(C(=O)OC)c(NC(=O)CSc2nc(-c3ccco3)cc(C(F)(F)F)n2)c1 | active: -3.68
COc1ccc(-n2cc3c(-c4cccc(Br)c4)nnc(C)c3n2)cc1 | -0.735
Cc1cc(C)c2cc(C#N)c(N3CCCN(S(=O)(=O)c4ccccc4)CC3)nc2c1 | -0.0781

SMILES | z-score
Cc1ccc(NC(=O)CS(=O)(=O)c2c[nH]c3ccccc23)c(C)c1 | -0.305
C=CCn1c(SCc2cc(C(C)=O)ccc2OCC)nc2ccccc2c1=O | -0.297
O=S(=O)(Nc1ccc2c(c1)nc1n2CCN(Cc2ccccc2)C1)c1ccc(Cl)cc1 | -1.03
CCCOP(=O)(OCCC)C(NC(=O)C(C)(C)C)c1ccccc1 (centres undefined) | 0.0289
COc1ccc(NC(=O)c2cc3nc(-c4ccccc4)cc(-c4ccccc4)n3n2)c(OC)c1 | -0.94
CC1(C)CC(NC(=O)c2coc(=O)c(Br)c2)CC(C)(C)N1 | -0.14
O=S(=O)(NCc1ccccn1)c1ccc(Br)s1 | -0.0365
Cc1cc2ncn(CCOc3ccccc3C#N)c2cc1C | -1.65
CSCCC(NC(=O)c1cc(C)oc1C)C(=O)O (centres undefined) | -0.102
CCCC(=O)OCC(=O)Nc1ccc(OC(F)F)cc1 | -0.256
Cc1cc(NC(=O)CCC(=O)NNC(=O)c2ccc(C(C)(C)C)cc2)no1 | -0.141
COc1ccc(CCNC(=O)C2CCCN2C(=O)NC2CCCCC2)cc1OC (centres undefined) | -1.01
CC(=O)NC(Cc1ccccc1)C(=O)N1CCN(C(=O)c2ccco2)CC1 (centres undefined) | -0.125
CC(C)(C)C1CCC2(CC1)C(Nc1cccc(C(F)(F)F)c1)=NC(=S)N2CC#N (centres undefined) | 2.58
CCc1ccc(NC(=O)C(=O)NCCN2CCN(C(=O)c3ccco3)CC2)cc1 | -0.229
Cc1cc(S(=O)(=O)Nc2nc(CN3CCOCC3)nc3sc4c(c23)CCCC4)ccc1F | -2.11
O=C(NCCN1CCOCC1)c1c(F)c(F)c(F)c(F)c1F | -0.171
c1ccc(-c2csc(NC3=NCCCCC3)n2)cc1 | -0.237
COc1ccccc1N(CC(O)COc1ccc(C)cc1)S(=O)(=O)c1ccccc1 (centres undefined) | -0.199
CC(C)CCN1C(=O)c2ccccc2C1C(=O)NCc1cccnc1 (centres undefined) | -0.24
CCOC(=O)N1CCN(C(=S)NCCOC)CC1 | -0.256
CCOCc1cnc(C)nc1NCC(=O)c1c(C)[nH]c2cc(C)ccc12 | -0.201

SMILES | z-score
COC(=O)CN(c1cc(C(F)(F)F)ccc1Cl)S(C)(=O)=O | -0.196
S=c1[nH]nc(-c2ccccc2)n1/N=C/C=C/c1ccco1 | 0.28
COc1ccc(Nc2ccnc(Nc3ccc(OC)cc3)n2)cc1 | 1.04
COc1ccc(OC)c(/C=N/NC(=O)c2cc[n+](Cc3ccccc3)cc2)c1 | -0.0886
CCOC(=O)/C(C#N)=C\c1cc(C)n(-c2ccccc2)c1C | 0.0173
CCCCNC(=S)NNC(=O)c1csc(C(C)C)c1 | 0.133
O=C(CN1C(=O)CC(c2ccco2)Sc2ccccc21)Nc1ccccc1F (centres undefined) | 0.0909
CC(=O)N1CCN(c2nc(-c3ccco3)c3c(c2C#N)CC(C)(C)SC3)CC1 | -0.491
CCCCN(C(=O)NC(=O)Nc1ccc(C)cn1)S(C)(=O)=O | 0.0807
COc1ccc(CN2CCOCC2)cc1 | -0.0956
Cc1ccc(C)c(-n2c3nc(=O)[nH]c(=O)c-3cc3cc([N+](=O)[O-])ccc32)c1 | -0.477
COc1ccccc1CNC(=O)CCn1c(=O)[nH]c2ccsc2c1=O | -0.264
CC(=O)Oc1ccc2c(C)cc(=O)oc2c1 | -0.164
Cc1ccc(N2C(=O)c3ccccc3C2Nc2ccc(S(=O)(=O)N3CCOCC3)cc2)nc1 (centres undefined) | -0.444
O=C(Cn1nnc2c(sc3nc4c(c(-c5ccccc5)c32)CCC4)c1=O)c1ccccc1 | -0.0441
Cc1ccccc1NC(=O)C1CCCN1S(=O)(=O)c1cccc2cccnc12 (centres undefined) | -0.0844
Cn1c(CN2CCCCC2)nc2cc(NC(=O)c3ccccc3)ccc21 | 0.236
CNc1cc(CS(=O)c2ccccc2)nc(-c2ccccc2)n1 (centres undefined) | -0.156
CC(C(=O)Nc1ccc(F)c(F)c1F)N(C)CC(=O)Nc1ccccc1Br (centres undefined) | -0.465
C=C(C)c1cccc(C(C)(C)NC(=O)Nc2cc(C)ccc2OC)c1 | 0.222
CCOc1ccccc1C1C(C#N)=C(N)Oc2cc(C)n(C)c(=O)c21 (centres undefined) | -0.0841
O=C(COC(=O)C1CC(=O)N(c2ccc3c(c2)OCCO3)C1)NC1CCCc2ccccc21 (centres undefined) | -1.03

SMILES | z-score
CCC(C)n1c(SCC(=O)NC(=O)Nc2ccc3c(c2)OCCO3)nc2ccccc2c1=O (centres undefined) | active: 4.47
Cc1ccc(S(=O)(=O)NNC(=O)c2cnn(-c3ccccc3)c2-n2cccc2)cc1 | 0.0647
COc1ccccc1NC(=O)c1ccc(NC(=O)COC(=O)C2(C)CC2(Cl)Cl)cc1 (centres undefined) | -0.279
COc1ccc(Cc2nnc(SC)[nH]c2=O)cc1OC | 0.497
COc1cccc(N2CCN(C(=O)c3ccc(N4C(=O)NC5CC4(C)Oc4ccccc45)cc3)CC2)c1 (centres undefined) | -0.29
Cc1ccccc1C(=O)NC(=S)Nc1ccc(S(=O)(=O)N2CCN(C)CC2)cc1 | 0.142
Cc1ccc(S(=O)(=O)NCC(=O)OCC(=O)c2cccs2)cc1 | 0.396
CCN(CC)S(=O)(=O)c1ccc(N=N/C(C(C)=O)=C(/C)O)cc1 | -0.116
CC(=O)Nc1ccccc1OCC(=O)N(Cc1ccccc1)C(C)C | -0.264
COc1ccccc1CNC(=O)C1CCCN(S(C)(=O)=O)C1 (centres undefined) | 0.086
COC(=O)C1=C(C)N(C(C)C)C(=O)C1(NC(=O)C1CCCCC1)C(F)(F)F (centres undefined) | -0.495
CCCCCCOC(=O)C(C#N)c1nc2ccccc2nc1N1CCOCC1 (centres undefined) | 0.194
N#CCC(CNc1ncc(C(F)(F)F)cc1Cl)OC(=O)c1ccc(Cl)cc1Cl (centres undefined) | 0.0061
CCC(C)NC(=O)c1ccc(N2CCC3(CC2)OCCO3)c([N+](=O)[O-])c1 (centres undefined) | 0.408
Cc1cc(C)n2nc(/C(C#N)=C/c3ccccc3)c(C#N)c2n1 | -0.0817
Cn1c(N)c(C#N)c2c(c1=S)COC(C)(C)C2 | -0.21
Cc1ccc(C)c(N2CCN(S(=O)(=O)c3ccc4c(c3)OCCO4)CC2)c1 | 1.01
COc1ccc(Nc2ncc3c(n2)CC(c2ccc(OC)cc2)CC3=O)cc1 (centres undefined) | 0.611
COCCNC(=O)CSc1nc(-c2ccc(OC)c(OC)c2)cc(C(F)(F)F)n1 | 0.253
C=CCN1C(=O)C(Cc2ccccc2)SC1=Nc1ccc(C(=O)O)cc1 (centres undefined) | 0.936
COc1ccc2cc(Br)ccc2c1CC(=O)NC(C)(C)C | -0.349
CCCc1c(O)nc(SCc2ccccc2)[nH]c1=O | -0.0231

SMILES | z-score
Cc1cccc(C)c1NC(=S)NC(=O)CCc1ccccc1 | 1.73
CCCc1cc(=O)n2[nH]c(NCc3c(Cl)cccc3Cl)nc2n1 | -0.888
Cc1ccc(C(=O)Nc2ccc(N3CCOCC3)cc2)cc1 | 0.575
CCS(=O)(=O)NCCc1cc2ccc(C)cc2[nH]c1=O | -0.165
Cc1[nH]nc2c1C(c1cccc(O)c1)C1=C(CC(C)(C)CC1=O)N2 (centres undefined) | 0.201
COc1ccc(C2=NOC(CN3C(=O)c4ccccc4S3(=O)=O)C2)cc1 (centres undefined) | -0.731
CCOC(=O)Cn1c(=NC(=O)CSC(C)=O)sc2cc(F)ccc21 | 0.332
CCNC(=O)c1c(NC(=O)c2cc(-c3cc(C)ccc3O)n[nH]2)sc2c1CCCC2 | 0.301
C=CCCCCCCCCC(=O)NN | 0.048
CN(C)S(=O)(=O)c1ccc(C(=O)Nc2ccc(S(=O)(=O)NC3=NCCCCC3)cc2)cc1 | -0.149
Cc1ccc(CNC(=O)c2cccc(S(C)(=O)=O)c2)cc1 | 0.312
Cc1nc(CCNC(=O)c2ccccc2)cs1 | -0.162
COc1cc(/C=C(/NC(=O)c2ccccc2)C(=O)Nc2cccc(O)c2)c([N+](=O)[O-])cc1OC | 0.108
C=CCNC(=O)C1CC(=O)N(c2ccc(OCC(=O)Nc3cccc(OC)c3)cc2)C1 (centres undefined) | 0.918
Cn1cc(-c2nnnn2-c2cccc(C(F)(F)F)c2)c(C(F)(F)F)n1 | -0.143
C=CCc1ccc(OCC(O)COCC)c(OC)c1 (centres undefined) | -0.12
COc1ccnc(NCc2ccc(Cl)cc2)c1C#N | -0.29
CC1/C(=N/O)CC(c2ccccc2)N(C)C1c1ccccc1 (centres undefined) | -0.0255
CCOc1ccc2c3c(c(=O)oc2c1OCC)CCCC3 | -2.42
COc1ccc(NC(=O)C2CCCN2S(=O)(=O)c2cccc3cccnc23)c(OC)c1 (centres undefined) | -0.556
COc1ccc(O)c(/C=N/n2c(-c3ccco3)csc2=Nc2cccnc2)c1 | 0.368
